Switch fluorescence ratio data for 120 sequences are collected here from the supplement of paper PMC10126150.

Values marked as one replicate rest on one cluster of the flow cell; about a third of the high ones do not repeat.

The test system of this series is ATP. The series is described as follows: switch fluorescence ratio, 500 uM ATP over buffer (Cy3 cluster intensity, sum of 5 cycles each) (fold (ratio)); higher = stronger signal-on switching upon ATP binding; sequences stand for … in TCGTCGGCAGCGTCAGATGTGTATAAGAGACAGTTTTTTTTTTTTTTTTTTTTTTTTT…TC. Particulars: aptamer strand: ATP DNA aptamer (quencher-CACCTGGGGGAGTATTGCGGAGGAAGG + anchor), 100 nM annealed; ATP concentration: 500 uM; one replicate. A digest of the protocol: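 Exposure to 500 uM ATP lasted 15 min at 22 °C before imaging, and a selection-buffer image was taken beforehand, for Cy3-labelled switching-strand clusters on a modified Illumina MiSeq flow-cell annealed to 100 nM quencher-labelled ATP aptamer. Five buffer/ATP cycles were run with NaOH stripping and re-annealing between them. The fluorescence ratio per cluster is summed target-cycle over summed buffer-cycle Cy3 intensity, averaged per switch-domain sequence. Clusters outside 100-1000 RFU were excluded.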

Turning to TGGAAGTCAC, the switch fluorescence ratio came out at 1.08. As for GGGAGGGGT, the figure is 0.973. As for GCCATAACAG, the figure is 0.957. As for TATCCTATAT, the figure is 1.02. On to GCCTTGTCT, for which the switch fluorescence ratio worked out at 0.967. As for CTATATTGAA, the figure is 1.05. As for GGATTGGACA, the figure is 1.02; as for GGAAGGCTGT, 1.04; as for AAAGCATTAA, 1.09.

On to GGAGGGACAG, for which the switch fluorescence ratio stood at 0.999. As for AACTCTAGTG, the figure is 0.958. Next, GTCGGGATTT: 0.984; ACTACGAAGT: 1. Turning to TATATGCCTC, the switch fluorescence ratio came out at 0.962. As for GCGTTAATGC, the figure is 1.07; as for CGGTATGCCT, 0.969; as for AAAGCCCCGA, 1.03. Next, CATGTGCGGA: 1.02. As for CGGTGGCGGC, the figure is 0.99; as for GTGACCCCAT, 1.07; as for ACCGTACACG, 1.13. As for GTTCATGCGG, the switch fluorescence ratio was determined as 0.96. Next, GGCATGTCAC: 1.02; TTAGTTTCGA: 0.944; GGGAGCGGTT: 0.929.

As to ATTACATAGC, the switch fluorescence ratio was determined as 1.03. For GTTAGCCGAC, the switch fluorescence ratio worked out at 1.05. As for GGGGTCAGAG, the figure is 0.964; as for AATCGTAACT, 1.02.

As to TCGCGCGACT, the switch fluorescence ratio is 0.934.

Take GGCGAAATCG: the switch fluorescence ratio came out at 0.968. As for TTTTGCAGCG, the figure is 0.973; as for CTCCAGCACG, 2.85; as for ATGGGAGGG, 0.974. Next, GTTATAATAA: 0.979; CGACAGCGCT: 1.05; GCCGGTGAGC: 0.976. For the sequence CCCAGGGAGC, the switch fluorescence ratio came to 1.17. As for TACTTAAATC, the figure is 1.03; as for CCTTTGTCGG, 1.08; as for GTCCGTGGTC, 1.1. As for GGCGGATTTC, the figure is 1.01; as for ATTATACCAG, 1.02; as for TTATGGGGCA, 1.07. Next, ACGGAGACTT: 1.13; TCCAGACCAG: 0.968; TTTATGGCGC: 0.994. GCTAGGGATA: the switch fluorescence ratio is 1.02. Next, TAACTGAACT: 1.14; GGCCGCTGCT: 0.973. Next, GGACCTGTAG: 0.981; GGTCGAGTAC: 1.05; TTTCGCGAGC: 1.14.

CTCACGGTAA: the switch fluorescence ratio was determined as 1.3. As for TTGAGGTGGA, the figure is 0.98. For the sequence CTTTCCACGT, the switch fluorescence ratio is 1.04. Take GGAGCTAGCC: the switch fluorescence ratio is 0.894. As for TTAACTATC, the switch fluorescence ratio turned out to be 1.01.

Take TCCAGTCCTA: the switch fluorescence ratio came out at 1.05.

As for GTTGCACCGG, the switch fluorescence ratio is 1.01.

Regarding TTGAAAGGC, the switch fluorescence ratio was found to be 0.975. As for GGTGATACTG, the figure is 1.04; as for TCTGTCCGGT, 1.03. As to GAACGCTAGA, the switch fluorescence ratio was 1.1. Consider GCGAAAGTAG, for which the switch fluorescence ratio was 1.01. Next, ACTCTCTCCC: 1.18; GCTACCTGAG: 1.35. Next, TGGAATGATT: 1.09. As for TACGCTGTTT, the figure is 1.07.

Turning to GGAAGAAAAG, the switch fluorescence ratio is 1.02.

For TACAAGGGG, the switch fluorescence ratio came out at 1.04. As for TTAATACCTA, the figure is 1.04.

Turning to TAGCTTCGAT, the switch fluorescence ratio is 0.979. Next, TGAGGCGGTA: 0.999; TCCACAGGTT: 1.83; GCTTAACCGG: 0.966.

As for GGTTAAGACT, the switch fluorescence ratio turned out to be 1.02.

As to CGAATTATAG, the switch fluorescence ratio amounted to 1.03.

As for TGATCAACTC, the switch fluorescence ratio is 1.04. As for GAGTGACAGG, the switch fluorescence ratio turned out to be 1.04.

Consider TATTCCGAAA, for which the switch fluorescence ratio was found to be 1.78. As for GAATGTTTAA, the figure is 1.02; as for TGTCGTGTCA, 0.989; as for ATGTGGGTT, 0.994.

For the sequence AGGATGGGCT, the switch fluorescence ratio was 0.96. Next, TAACCTCGCA: 1.63; AACAAGTTTT: 1. As for ACCAGTTG, the figure is 1.03; as for GCCCCGCTGA, 1.54. Next, GGCATTGAGT: 0.986. Consider ACACTTGGTG, for which the switch fluorescence ratio was 1.05. Consider GTGTTCGGGA, for which the switch fluorescence ratio was 1.03.

With TTATAAACAG, the switch fluorescence ratio was determined as 1.02. As for TCTCATGCTT, the figure is 1.04; as for AGGCGCTAGG, 0.969. As for GAAGGTTTTG, the figure is 0.983; as for ATCGTTGCAA, 1.09.

Consider TATCTCACCA, for which the switch fluorescence ratio was 1.06. Next, GGGGGCCTCT: 1.04.

For GAGAATGGAG, the switch fluorescence ratio is 0.997. As for ATTAATAAAT, the figure is 1.02. Next, TGACTCAGGT: 1.07; AGCCAAATGC: 1.15; CCGTGTCTA: 1.05. As for CTTAACGG, the figure is 1.05.

As for TCAGCGCA, the switch fluorescence ratio was 1.54. As for CAGCCCATGC, the figure is 0.997; as for TCAGAAAGCT, 1.3. Next, AAGGCGGTAG: 1.02; GGTATCCGGT: 0.988; CAATTAACTC: 1.04. Next, CAAACTAGCC: 1.06; TGATGAATAG: 1.03; GGGTCCAGAA: 0.989. For the sequence CAATGTGACT, the switch fluorescence ratio was found to be 1.02. Next, TTTATTCTCG: 1.05. As for TCTCCAATGT, the figure is 1.28; as for CGTTTAAGGA, 0.989. Next, ATATTAAAA: 0.984; GTTATTCCTT: 1.05.
